# Experimental data from paper PMC2883571, “Quercetin Targets Cysteine String Protein (CSPα) and Impairs Synaptic Transmission” (PLoS ONE, 2010).
# These are yes or no findings as the source states them, for the method shown. Some entries that bind do so weakly or less than the wild type. For some assays here: Tags and fused reporters may be left off the sequences shown.
# T1: c-myc tagged rat CSPα_(1–198) (cysteine string protein) (rat) (UniProt P60905)
# T1 sequence (chain, both unmodified and palmitoylated (extensive fatty acylation) species seen): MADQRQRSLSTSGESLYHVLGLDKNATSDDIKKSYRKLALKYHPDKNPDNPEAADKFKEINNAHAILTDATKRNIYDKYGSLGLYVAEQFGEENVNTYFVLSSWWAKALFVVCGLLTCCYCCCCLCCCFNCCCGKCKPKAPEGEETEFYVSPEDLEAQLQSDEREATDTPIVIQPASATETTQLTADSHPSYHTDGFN
# T2: Gαs (mouse (endogenous in CAD cells)), P63094
# T2 chain: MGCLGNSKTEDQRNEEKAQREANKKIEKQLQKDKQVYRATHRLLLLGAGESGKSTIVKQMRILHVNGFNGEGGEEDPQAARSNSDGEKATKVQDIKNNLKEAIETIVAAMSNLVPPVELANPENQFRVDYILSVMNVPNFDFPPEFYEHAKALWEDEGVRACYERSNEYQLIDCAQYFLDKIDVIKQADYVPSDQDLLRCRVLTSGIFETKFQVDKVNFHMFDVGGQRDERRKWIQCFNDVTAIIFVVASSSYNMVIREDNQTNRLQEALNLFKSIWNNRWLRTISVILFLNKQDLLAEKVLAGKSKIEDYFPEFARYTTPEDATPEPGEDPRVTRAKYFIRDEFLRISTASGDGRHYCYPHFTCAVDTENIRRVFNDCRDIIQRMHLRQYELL
# B1: c-myc tagged rat CSPα_(1–198) (cysteine string protein) (protein, UniProt P60905 1-198)
# chain: T1 sequence (chain, both unmodified and palmitoylated (extensive fatty acylation) species seen)
# modifications: both unmodified and palmitoylated (extensive fatty acylation) species seen
# B2: native CSPα of rat cortical neurons and rat brain (protein, UniProt P60905 1-198)
# chain: T1 sequence (chain, both unmodified and palmitoylated (extensive fatty acylation) species seen)
# modifications: palmitoylated monomer at ∼34 kDa seen
# B3: purified recombinant rat CSPα (protein, UniProt P60905 1-198)
# chain: T1 sequence (chain, both unmodified and palmitoylated (extensive fatty acylation) species seen)
# B4: CSPα_(1–82) truncation construct (J domain only) (domain or fragment, UniProt P60905 1-82)
# chain: MADQRQRSLSTSGESLYHVLGLDKNATSDDIKKSYRKLALKYHPDKNPDNPEAADKFKEINNAHAILTDATKRNIYDKYGSL
# B5: CSPα deletion construct lacking the cysteine string region amino acids 113–136 (protein, UniProt P60905)
# chain: MADQRQRSLSTSGESLYHVLGLDKNATSDDIKKSYRKLALKYHPDKNPDNPEAADKFKEINNAHAILTDATKRNIYDKYGSLGLYVAEQFGEENVNTYFVLSSWWAKALFVVKPKAPEGEETEFYVSPEDLEAQLQSDEREATDTPIVIQPASATETTQLTADSHPSYHTDGFN
# B6: Gαs, P63094 1-394 (protein)
# chain: T2 chain
# Legend:
# [1] = target: T1, c-myc tagged rat CSPα_(1–198) (cysteine string protein) (rat); assay: SDS-resistant dimer on SDS-PAGE with Western blot; lysates of transiently transfected CAD cells, control or treated 24 h with quercetin (up to 200 µM), EGCG or other agents; 30-40 µg protein in SDS sample buffer at 37°C or 80°C; dimer at ∼72 kDa
# [2] = target: native CSPα of rat cortical neurons and rat brain (rat (endogenous in rat cortical neurons and rat brain)) (UniProt P60905); assay: SDS-resistant dimer on SDS-PAGE with Western blot; crude rat brain homogenate with quercetin; data not shown
# [3] = target: native CSPα of rat cortical neurons and rat brain (rat (endogenous in rat cortical neurons and rat brain)) (UniProt P60905); assay: SDS-resistant dimer on SDS-PAGE with Western blot; 25 µg unfractionated homogenate of regions of adult rat brain, monoclonal anti-CSPα antibody
# [4] = target: native CSPα of rat cortical neurons and rat brain (rat (endogenous in rat cortical neurons and rat brain)) (UniProt P60905); assay: SDS-resistant dimer on SDS-PAGE with Western blot; lysates of cultured rat cortical neurons treated with quercetin (20-100 µM) or DMSO for 24 h
# [5] = target: purified recombinant rat CSPα (rat) (UniProt P60905); assay: SDS-resistant dimer on SDS-PAGE with Western blot; equal volumes of purified recombinant rat CSPα treated with indicated concentrations of quercetin for 24 hrs; both purified
# [6] = target: CSPα_(1–82) truncation construct (J domain only) (rat) (UniProt P60905); assay: SDS-resistant dimer on SDS-PAGE with Western blot; lysates of transiently transfected CAD cells, control or treated 24 h with quercetin (up to 200 µM), EGCG or other agents; 30-40 µg protein in SDS sample buffer at 37°C or 80°C; dimer at ∼72 kDa
# [7] = substrate: CSPα deletion construct lacking the cysteine string region amino acids 113–136 (rat) (UniProt P60905); assay: as above
# [8] = target: T2, Gαs (mouse (endogenous in CAD cells)), …; assay: as above; settings: remark: other sources report otherwise
binder,measurement,setting,value
B1,binding,[1],binds
B2,binding,[2],binds
same,binding,[3],binds
same,binding,[4],binds
B3,binding,[5],binds
B4,binding,[6],no binding
B5,binding,[7],no binding
B6,binding,[8],no binding
